# Reference: PubChem BioAssay AID488969 (Vanderbilt High Throughput Screening Facility, 2010)
# Whole data set: some 110,000 compounds, median “z-score” near -0.1, cut for the highest 2% near 2. The list shows a part of the results. Activity calls are given as the source filed them.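 The calls were made as follows: active = z-score in the third read window above 3 or below -3; inactive = the rest.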
# Target: Metabotropic glutamate receptor 8 (Rattus norvegicus) (UniProt P70579)
# Assay: rat mGluR8 modulators via GIRK flux, primary screen, cell-based, thallium flux, HTS (AID 488969)
# Details: HEK293 rat mGluR8, GIRK (G protein-gated inwardly rectifying potassium channel) thallium flux, FluoZin2; at 10 µM; stronger effect = higher value; submaximal glutamate (EC20) added with thallium
# UniProt P70579, sequence (P70579 whole entry, looked up): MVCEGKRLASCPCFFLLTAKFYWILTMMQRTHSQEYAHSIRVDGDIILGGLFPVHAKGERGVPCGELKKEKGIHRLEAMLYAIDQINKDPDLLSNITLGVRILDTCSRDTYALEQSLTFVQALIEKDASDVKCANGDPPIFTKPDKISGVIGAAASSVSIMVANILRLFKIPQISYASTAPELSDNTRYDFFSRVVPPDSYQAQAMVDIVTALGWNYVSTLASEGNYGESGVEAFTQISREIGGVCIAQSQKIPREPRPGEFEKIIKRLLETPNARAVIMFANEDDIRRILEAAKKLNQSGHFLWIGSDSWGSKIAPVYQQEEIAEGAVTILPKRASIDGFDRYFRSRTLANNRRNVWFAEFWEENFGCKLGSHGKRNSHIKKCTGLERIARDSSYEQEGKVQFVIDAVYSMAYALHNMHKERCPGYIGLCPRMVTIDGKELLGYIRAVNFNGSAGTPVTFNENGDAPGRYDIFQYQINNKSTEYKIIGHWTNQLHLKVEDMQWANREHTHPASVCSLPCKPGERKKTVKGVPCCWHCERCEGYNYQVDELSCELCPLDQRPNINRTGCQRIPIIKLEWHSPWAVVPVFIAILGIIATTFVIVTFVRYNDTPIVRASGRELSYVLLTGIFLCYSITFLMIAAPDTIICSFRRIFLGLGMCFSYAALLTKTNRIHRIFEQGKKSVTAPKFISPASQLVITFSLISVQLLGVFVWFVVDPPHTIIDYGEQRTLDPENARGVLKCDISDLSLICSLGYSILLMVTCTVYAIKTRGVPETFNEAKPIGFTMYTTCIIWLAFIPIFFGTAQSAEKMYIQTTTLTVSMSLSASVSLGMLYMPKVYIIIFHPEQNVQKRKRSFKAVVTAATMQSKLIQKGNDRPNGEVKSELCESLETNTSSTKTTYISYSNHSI
row,SMILES,z-score
1,COCCCn1c(=O)/c(=C\c2ccccc2OC(F)F)s/c1=C(/C#N)C(=O)NC(C)C,-0.195
2,O=C(NC1CCCCC1)c1ccc(S(=O)(=O)N2CCCCC2)cc1,0.145
3,COC(=O)c1ccccc1N/C=C1\CCc2c(c(C)nn2-c2ccccn2)C1=O,-0.171
4,CC(C)CCNc1nc(-c2ccco2)c2c(c1C#N)CCCC2,-0.366
5,O=C(CC(=O)NC1CCCCC1)N/N=C/c1ccc(Cl)cc1,-0.256
6,CCOC(=O)N1CCN(C(=O)CCSCCc2ccncc2)CC1,1.49
7,CCOC(=O)c1c(NC(=O)CSc2nnc(-c3cccnc3)o2)sc(C)c1C,-0.348
8,Oc1c(Cl)cc(Cl)cc1C=Nc1ccc(Br)cc1,-0.479
9,COc1cc(/C=C2/C(=O)c3cccc([N+](=O)[O-])c3C2=O)c(Br)cc1O,-0.984
10,Cc1cc(C)n2nc(C(=O)NCc3ccccc3)cc2n1,0.128
11,COc1cc(C2C(C#N)=C(N)Oc3cc(O)ccc32)cc(OC)c1OC (configuration not stated),0.00968
12,COc1cc2c(cc1NC(=O)c1cccc([N+](=O)[O-])c1)oc1ccccc12,0.178
13,CC(C)(C)NCC(O)COc1ccccc1C(=O)CCc1ccccc1 (configuration not stated),1.13
14,CCOC(=O)CSc1nc(NC#N)nc(N(CC)CC)n1,-1.36
15,O=C(Nc1cccnc1)c1cc2nc(C3CC3)cc(C(F)(F)F)n2n1,-0.178
16,COc1ccc(CC(=O)Nc2ccc(-c3cn4ccccc4n3)cc2)cc1,-0.938
17,O=C(c1cccc(F)c1)N1CCN(C(=O)c2cc(-c3ccc(Cl)cc3Cl)on2)CC1,active: 3.48
18,O=C(NCc1ccccc1)NC1CCCCC1,-0.555
19,COc1cccc2c1NC(C(=O)O)C1CC=CC21 (configuration not stated),-0.511
20,CN1CCN(CCC(=O)Nc2ccc(F)c(F)c2)CC1,0.743
21,CCCCn1nc(-c2ccccc2)c2nc3ccccc3nc21,-0.013
22,Cc1cc(C)c(NC(=O)COc2ccccc2C(=O)Nc2ccc3c(c2)oc2ccccc23)c(C)c1,1.61
23,CCOCCCNC(=O)CN1C(=O)C(CC)Oc2ccccc21 (configuration not stated),0.522

row,SMILES,z-score
1,Cc1ccccc1C1NS(=O)(=O)N=C1N (configuration not stated),0.553
2,O=C(CCn1nc(-c2ccc(Cl)cc2)c2ccccc2c1=O)NCCN1CCOCC1,-0.0201
3,COc1cc(C(=O)NCc2nnc(SCC(=O)Nc3cccc(C)c3)o2)cc(OC)c1OC,0.436
4,O=C(CN1CCSCC1)N/N=C/c1ccc(F)cc1,0.536
5,O=C(NCCNS(=O)(=O)c1cccc(C(F)(F)F)c1)c1cc(OCC(F)(F)F)ccc1OCC(F)(F)F,0.133
6,Nn1c(-c2ccccc2Cl)nnc1-c1ccccc1Cl,0.847
7,CCN(CC)CCOC(c1ccccc1)c1ccc(C)cc1 (configuration not stated),0.172
8,Cc1noc(C)c1C(=O)NCc1cccs1,-0.0943
9,CCc1nnc(NC(=O)CSc2nnc(CSc3nc(C)cc(C)n3)n2CC)s1,0.273
10,Cc1ccc(Oc2nnc(-c3ccccc3)cc2C#N)cc1,-0.198
11,N#CC1(c2ccccc2)CCC(=NO)CC1 (configuration not stated),-0.222
12,Cc1ccc(CNC(=O)Cc2cccs2)cc1,0.00768
13,CC1CCc2sc(C(=O)NCc3ccc(F)cc3)cc2C1 (configuration not stated),-0.239
14,Cc1nn(Cc2ccccc2Cl)c2sc(C(=O)NCCCn3ccnc3)cc12,-0.16
15,C(=N/n1c2ccccc2c2ccccc21)/c1ccco1,-0.375
16,S=C(NCc1cccs1)Nc1cccc(Cl)c1Cl,1.24
17,CC1CCN(c2c([N+](=O)[O-])c(=O)oc3ccccc23)CC1,-2.23
18,O=C1CN(C(=O)OCc2ccccc2)c2ccccc2N1,-0.224
19,COCCn1c(SCC(=O)Nc2nc3ccccc3s2)nnc1-c1ccoc1C,-1.07
20,O=C(Nc1cccc(NC(=O)c2ccco2)c1)c1ccc2c(c1)OCO2,-0.486
21,COc1ccc(C(=O)N/N=c2\oc3ccccc3cc2C(=O)NCc2ccccc2)cc1,0.152
22,O=C1Nc2c(c(=O)[nH]c(=O)n2-c2ccccc2F)C(C(F)(F)F)(C(F)(F)F)N1,-0.0774
23,COc1cccc(NC(=O)c2nc3ncccn3n2)c1,-0.0396

row,SMILES,z-score
1,O=C(O)c1cc(N/N=C2/CC(c3ccccc3)Oc3ccccc32)ccc1Cl (configuration not stated),0.1
2,CCOC(=O)C(=O)Nc1cc(Cl)ccc1C,-1.78
3,O=C(CN1CCN(Cc2ccccc2)CC1)NCC1COc2ccccc2O1 (configuration not stated),0.105
4,Nc1nc(SCc2ccc3c(c2)OCO3)n[nH]1,-0.166
5,Cc1cc(C(F)(F)F)nn1C(=O)c1cccnc1Cl,0.239
6,CCOc1ccc(C)cc1S(=O)(=O)n1ccnc1,0.0478
7,CCOc1ccc(N(CC(=O)NC(C)CC)S(C)(=O)=O)cc1 (configuration not stated),-0.296
8,CCC(C)NC(=O)Nc1ccccc1F (configuration not stated),1.53
9,CCCc1cc(C(=O)Cc2ccc(C(=O)OCC)o2)c(O)cc1O,-1.74
10,CCn1c(Cc2ccc(OC)cc2)nnc1SCC(=O)Nc1cccc(C(=O)OC)c1,-1.43
11,CNC(=S)N(Cc1ccc(OC)cc1)C1CC(=O)N(c2ccc(OC)cc2)C1=O (configuration not stated),-0.0408
12,COc1ccc(C(=O)Nc2ncc3c(n2)-c2ccccc2CC3)cc1,-0.247
13,CN1C(=O)N2CN(C3CCCCC3)CN3C(=O)N(C)C1C23 (configuration not stated),-0.275
14,Cc1ccc(-c2ccc(/C=N\NC(=O)c3cc4c(ccc5ccccc54)o3)o2)cc1[N+](=O)[O-],0.0202
15,COc1ccc(S(=O)(=O)N2CCN(CC(=O)Nc3ccc(C)c(F)c3)CC2)cc1,-0.257
16,CC(=O)c1ccc(N2CCN(C(=S)Nc3cccc(F)c3)CC2)cc1,-0.0609
17,CCOc1ccc2nc(NC3=NCN(CC4CCCO4)CN3)nc(C)c2c1 (configuration not stated),-0.318
18,CSc1nsc(SCC(=O)Nc2nc3ccccc3s2)n1,0.127
19,Cc1ccc(-c2nc(=S)c3c(n2Cc2ccco2)CC(C)(C)OC3)cc1,1.54
20,Cc1c(Cl)cccc1N1CC(C(=O)Nc2nccs2)CC1=O (configuration not stated),-0.53
21,CCCCn1nc2cc(C(=O)NC3CCCc4ccccc43)ccc2c1OCC (configuration not stated),-0.297
22,Cc1cc(C)cc(NC(=O)C2(c3cccs3)CCOCC2)c1,0.819
23,CCOc1cc(C(=O)OCC(=O)Nc2cccc(C)c2)ccc1OCC(=O)N1CCOCC1,-0.136

row,SMILES,z-score
1,CCN(CC)S(=O)(=O)c1cccc(NC(=O)/C=C/c2cccc([N+](=O)[O-])c2)c1,0.26
2,Cc1ccc2c(c1)C(c1ccc(F)cc1)N(C(=O)C1CC1)CC(=O)N2 (configuration not stated),2.06
3,CCCC(=O)c1ccc(N2CCCC2)c(F)c1,-0.0859
4,C/C(Cl)=C/CSc1nc2c(c(=O)[nH]c(=O)n2C)n1C(C)C,0.133
5,CNC(=O)c1nnn(Cc2ccccc2)c1NC(C)=O,-0.133
6,COc1ccc(OC)c(C(c2nnnn2CCc2ccccc2)N2CCC(C(N)=O)CC2)c1 (configuration not stated),-0.0793
7,Cn1c(NC(=O)c2ccco2)cc(=O)n(C)c1=O,-0.188
8,CCOC(=O)C(C(=O)Nc1ccc(C)cc1)C1CCCCC1 (configuration not stated),-0.104
9,Cc1nc2cc(N3CCCCC3)c(NC(=O)c3ccncc3)cc2c(=O)n1Cc1ccc(Cl)cc1,-0.37
10,CCOC(=O)c1cnc(SCC(=O)Nc2nnc(CC)s2)nc1N,0.763
11,Cc1cc(N(CC(=O)O)S(C)(=O)=O)ccc1Br,-0.273
12,Cc1n[nH]c(C)c1S(=O)(=O)N(CC(=O)NC1CCCC1)c1ccc(C(C)C)cc1,-0.141
13,Cc1ccccc1Nc1nc(N)nc(COC(=O)CC2CC3CCC2C3)n1 (configuration not stated),-0.47
14,Cc1[nH]c2ccccc2c1CCNC(=O)c1ccc2c(c1[N+](=O)[O-])C(=O)c1ccccc1C2=O,-0.301
15,Cc1ccc(S(=O)(=O)N2CCN(C(=O)CN3CCCC3)C2)cc1,-0.333
16,CCCCCC1CCC(C(=O)O)CC1 (configuration not stated),-0.0769
17,CCN(CC)S(=O)(=O)c1ccc(N2CCOCC2)c(NC(=O)C23CC4CC(CC(Cl)(C4)C2)C3)c1,-0.227
18,O=C(COC(=O)c1c2c(nc3ccccc13)/C(=C\c1cccs1)CCC2)Nc1ccccc1Cl,0.194
19,O=C(Nc1cc2c(cc1Cl)OCCO2)c1ccco1,-0.227
20,C=CCOc1cccc(C2C(C(=O)c3ccc(C)o3)=C(O)C(=O)N2CCN(C)C)c1 (configuration not stated),-0.0156
21,CCOC(=O)c1nn(-c2cccc(Cl)c2)c(C)c1C(C)=O,-0.154
22,Cc1cccc(NC(=S)NNC(=O)CC(C)O)c1C (configuration not stated),-0.263
23,O=c1[nH]c(CSc2nnc(COc3ccccc3)n2-c2ccccc2)nc2ccccc12,-0.443

row,SMILES,z-score
1,COc1ccc(CC(=O)Nc2sc(Cc3ccccc3)c(C)c2C(N)=O)cc1,-0.16
2,O=S(=O)(NC1c2cccc3cccc(c23)C1Sc1ncccn1)c1ccccc1 (configuration not stated),0.0513
3,O=C(CNC1=NCCC1)c1ccc(Cl)cc1,-0.159
4,COc1ccc(N/C=C(/C(C)=O)c2ccccc2)cc1,-0.164
5,O=C(Nc1nc2c(Cl)ccc(Cl)c2s1)c1ccco1,1.81
6,O=C(N/N=C/c1ccccc1[N+](=O)[O-])c1ccc(COc2ccccc2-c2ccccc2)cc1,-0.281
7,Cc1cc(C)n(-c2cc(C)c(C)cc2Br)n1,-0.323
8,Cc1ccc(NC(=O)CSc2nnc(-c3ccncc3)n2C)cc1C,-0.215
9,O=C(O)CSC(C(=O)Nc1ccc(C(F)(F)F)cc1)c1ccccc1 (configuration not stated),-0.302
10,O=S(=O)(c1ccc2ccccc2c1)N1CCN(C(=S)Nc2ccc(F)c(Cl)c2)CC1,0.355
11,CCOC(=O)c1cc2occc2n1CCCN1C(=O)c2ccccc2C1=O,-0.393
12,O=C(CSc1nc2ccccc2c(=O)[nH]1)c1ccccc1,-0.553
13,CCN(CC)S(=O)(=O)c1cccc(NC(=O)CCSc2ccc(Cl)cc2)c1,0.0143
14,CC1CN(C(=O)Nc2ccc3c(c2)OCO3)CC(C)O1 (configuration not stated),-0.128
15,CCC/C(O)=C1\C(=O)CC(c2ccccc2)CC1=NC(C)C(=O)O (configuration not stated),1.43
16,Cc1cc(=O)oc2c(C)c(OCC(=O)N(C)C)ccc12,0.0347
17,COc1cccc(NC(=O)C2CCN(S(=O)(=O)c3ccc4c(c3)OCCO4)CC2)c1,-0.278
18,CC(C)(C)C(=O)Nc1nc2c(s1)COc1ccccc1-2,active: -4.24
19,CS(=O)(=O)N(CC(=O)N1CCN(c2ccc(F)cc2)CC1)c1ccc(F)c(Cl)c1,0.0531
20,CCN1C(=O)c2cccc3c(S(=O)(=O)N(C(=O)c4cccnc4)c4ccc(OC)cc4)ccc1c23,-0.343
